Results as given in patent publication US20100222309A1, “SKIN PROPERTY-IMPROVING THERAPEUTIC AGENT COMPRISING A MORPHINAN DERIVATIVE OR ANY OF ITS PHARMACOLOGICALLY PERMISSIBLE ACID ADDITION SALTS AS AN ACTIVE INGREDIENT” (TORAY INDUSTRIES, INC., priority 2007, published 2010).

Tested on: itch patients treated with hemodialysis
Assay: Oral administration of compound 1 soft capsules to itch patients treated with hemodialysis; skin properties and itching observed
Settings: one of the patients, about 4 to 5 days after start of administration

**Q.** What does the source list for `CN(C(=O)/C=C/c1ccoc1)[C@@H]1CC[C@@]2(O)[C@H]3Cc4ccc(O)c5c4[C@@]2(CCN3CC2CC2)[C@H]1O5.Cl` [compound 1]?
**A.** skin moisture: began to have moist skin; itching (wrists to shoulders and breasts): relieved of the itching
